Test results published in PubChem BioAssay AID1345082 (National Center for Advancing Translational Sciences (NCATS), 2018).
Among all 94,000 compounds or so, about 4,000 (4.3%) were called active. The inconclusive results got no clear call from the source; some entries with a clear call stand among them for comparison. The call rests on the fitted dose curve; in most records, active means well fitted inhibition curve with a large enough effect; inconclusive means small, poorly fitted or top-dose-only effect; inactive means no such curve, though single readings can be large or run the other way. Potencies of inconclusive entries are doubtful fits and often do not repeat.

assay: Cytotoxic Profiling in NIH 3T3 Cell Line of Diverse Libraries Using Quantitative High-Throughput Screening; conditions: NIH 3T3 viability, CellTiter-Glo ATP luminescence, 48-72 h; activity change, negative = cytotoxicity: at 96.7 µM (top of the series); series mostly up to 96.7 µM; further: nearly all actives have a fitted effect of over 55% in size
In short: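 First NIH 3T3 cells are plated at 400 cells/well; next compound is pinned in; then plates incubate 48 or 72 hr at 37 °C; finally CellTiter-Glo is added and luminescence read after 10 min.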
On the % scale 0 is the no-effect control and ±100 the full control effect; potency means the concentration at half of the fitted maximal effect; tags describe the fitted curve by direction and shape.

| SMILES | Potency | activity change, negative = cytotoxicity | outcome |
| --- | --- | --- | --- |
| CN1C[C@@H](NC(=O)Nc2cccc(C#N)c2)C[C@H]1c1nc(-c2ccc(Cl)cc2)no1 | active: 39.8 µM | – | – |
| C=CCN1C[C@H]2COc3cc(OC)ccc3[C@H]2N(C(=O)c2ccc(F)cc2)CCC1=O | inconclusive: 79.4 µM [inhibitor, single point] | – | – |
| O=C(Cc1ccc(F)cc1)NC1CCN(c2ccc3nnc(C4CC4)n3n2)CC1 | inconclusive: 50.1 µM [inhibitor, partial curve, poor fit] | – | – |
| COCCN1CCC(C(=O)Nc2ccc(Oc3ccccc3F)cc2)CC1 | inconclusive: 56.2 µM [inhibitor, partial curve, poor fit] | – | – |
| COc1ccc(CC(=O)N2CCCC(N3C(=O)c4c(c(C)nn4-c4ccccc4)C3C(C)C)C2)cc1 (stereo not given) | inconclusive: 44.7 µM [inhibitor, partial curve, poor fit] | – | – |
| COc1ccc(-n2cc(CN3CCC(O)CC3)c(-c3cccc(F)c3)n2)cc1 | active: 79.4 µM | – | – |
| Cc1nn(-c2ccccc2)c2c1C(C1CC1)N(C1CN([S+](C)(=O)[O-])C1)C2=O (stereo not given) | – | inactive: -28.8% | – |
| COc1ccc(C(=O)N2CCC(n3cc(-c4nc(C(C)C)no4)nn3)C2)cc1OC (stereo not given) | – | inactive: -15.3% | – |
| CN(CCc1ccccc1)C(=O)c1cc2c(s1)CCN(C(=O)c1ccc(Cl)cc1)C2 | – | inactive: -24.3% | – |
| N#Cc1cccc(C(=O)N2CCCCCCNC(=O)[C@@H]3C[C@@H](c4nc(-c5cccnc5)no4)C[C@@H]32)c1 | – | inactive: -26.3% | – |
| CN1CCN(C(=O)[C@@H]2CCC[C@@H](NC(=O)NC3CCCC3)CN(C)C(=O)C2)CC1 | – | – | inactive [at 138 µM] |
| CC(C)Cc1cc(C[C@@H]2C[C@H](NC(=O)C3CCCC3)C2(C)C)no1 | inconclusive: 56.2 µM [inhibitor, partial curve, poor fit] | – | – |
| O=C(c1ccccc1Cl)N1CCN(c2cc(-c3ccccc3)[nH]n2)CC1 | inconclusive: 44.7 µM [inhibitor, partial curve, poor fit] | – | – |
| COCc1nc2nc(-c3ccccc3)c(-c3cccc(CO)c3)cc2n1C | inconclusive: 63.1 µM [inhibitor, partial curve, poor fit] | – | – |
| CCOCCNC(=O)[C@@H]1CCCN1c1nccc(Nc2ccccc2Cl)n1 | – | inactive: -26.9% | – |
| Cn1cc(Nc2ccc(Cl)cc2)c2nc(CN3CC[S+](=O)([O-])CC3)cn2c1=O | inconclusive: 25.1 µM [inhibitor, full curve, poor fit] | – | – |
| CCn1ncc(N2CCCC(CC(=O)NCc3ccc(OC)cc3)C2)cc1=O (stereo not given) | inconclusive: 44.7 µM [inhibitor, partial curve, poor fit] | – | – |
| COc1ccc(OCC2(C)COc3ccc(C(=O)NCc4cccc(F)c4)cc3N2)cc1 (stereo not given) | inconclusive: 35.5 µM [inhibitor, full curve] | – | – |
| COc1ccc(NC(=O)CCC2CCCN(S(=O)(=O)c3ccccc3)C2)cc1F (stereo not given) | inconclusive: 50.1 µM [inhibitor, single point] | – | – |
| CCCCCNC(=O)C1CCCN(c2nccc(Nc3ccccc3OC)n2)C1 (stereo not given) | inconclusive: 14.1 µM [inhibitor, full curve, poor fit] | – | – |

| SMILES | Potency | activity change, negative = cytotoxicity | outcome |
| --- | --- | --- | --- |
| COc1ccc(CN2CCNc3cnc(Nc4ccccc4)cc3C2)cn1 | inconclusive: 44.7 µM [inhibitor, partial curve, poor fit] | – | – |
| O=C(NCc1ccc2c(c1)OCO2)c1nc(-c2cccc(C(F)(F)F)c2)c2ccccn12 | – | inactive: -15.2% | – |
| CC(C)Cc1ccc(CN2CCC3(Cc4ccccc4CNC3=O)C2)cc1 (stereo not given) | inconclusive: 28.2 µM [inhibitor, partial curve, poor fit] | – | – |
| COc1ccc(OC)c(S(=O)(=O)N2CCCCCCNC(=O)[C@@H]3CCC[C@@H]32)c1 | – | inactive: -6.94% | – |
| O=[N+]([O-])c1cccc(-c2noc([C@@H]3Cc4nc[nH]c4CN3Cc3ccc(F)cc3)n2)c1 | inconclusive: 70.8 µM [inhibitor, partial curve, poor fit] | – | – |
| CC1(C(=O)NCCCn2ccnc2)COCc2cnc(Nc3ccccc3)nc21 (stereo not given) | inconclusive: 100 µM [inhibitor, single point] | – | – |
| COc1ccc(Cn2c(-c3ccccc3)nc(C)c(CCO)c2=O)cc1F | inconclusive: 44.7 µM [inhibitor, partial curve, poor fit] | – | – |
| CCOc1cccc(CNC(=O)c2ccc(Cn3ccn4nc5c(c4c3=O)CCCC5)cc2)c1 | inconclusive: 31.6 µM [inhibitor, partial curve] | – | – |
| CC(C)(O)CCc1ccc(C(=O)N2CCOc3ccc(Cl)cc3C2)cc1 | inconclusive: 50.1 µM [inhibitor, partial curve, poor fit] | – | – |
| CC(C)CN(C1CCOCC1)C1CN(S(=O)(=O)c2ccc(F)cc2)C1 | inconclusive: 35.5 µM [inhibitor, partial curve, poor fit] | – | – |
| O=C(NCCc1ccccc1)N1CCC(c2noc(COc3ccc(F)cc3)n2)C1 (stereo not given) | inconclusive: 44.7 µM [inhibitor, partial curve, poor fit] | – | – |
| O=C(NC1CCN(c2cc(-c3ccc(Cl)cc3)[nH]n2)CC1)c1ccccn1 | inconclusive: 25.1 µM [inhibitor, full curve] | – | – |
| O=C(c1ccc(C(F)(F)F)cc1)N1CCCC2(CN[S+](=O)([O-])c3cccnc3N2)C1 (stereo not given) | – | inactive: -11.2% | – |
| COc1ccc(-c2cc(C(=O)NC3CCOCC3)c3cnn(C)c3n2)cc1 | inconclusive: 50.1 µM [inhibitor, partial curve, poor fit] | – | – |
| CC[C@H]1CN(S(=O)(=O)c2ccc(OC)cc2)CC[C@H]1CC(=O)O | inconclusive: 56.2 µM [inhibitor, partial curve, poor fit] | – | – |
| CN(C)CC(=O)N1CCC2(C1)CN(C)c1ccc(C(=O)NCc3cccs3)cc12 (stereo not given) | inconclusive: 112 µM [inhibitor, single point] | – | – |
| O=C(NCC1CC1)c1nc2sccn2c1-c1ccc(F)cc1 | – | inactive: -5.6% [at 138 µM] | – |
| COc1ccc(-c2cccc(CN3CCCC(C)(NC(C)=O)C3)c2)cc1OC (stereo not given) | inconclusive: 56.2 µM [inhibitor, partial curve, poor fit] | – | – |
| Cc1ccccc1CN1CCCC2(Cc3ccccc3CNC2=O)C1 (stereo not given) | – | inactive: -1.54% | – |
| CCN1c2cc(C(=O)Nc3ccc(C(F)(F)F)cc3)ccc2C(=O)N2CCCCC21 (stereo not given) | inconclusive: 50.1 µM [inhibitor, single point] | – | – |

| SMILES | Potency | activity change, negative = cytotoxicity | outcome |
| --- | --- | --- | --- |
| CC(=O)Nc1ccc(CN2CCc3nc(C4CC4)nc(-c4ccc(O)cc4)c3CC2)cc1 | inconclusive: 44.7 µM [inhibitor, partial curve, poor fit] | – | – |
| O=C(c1ccoc1)N1CCC[C@H](n2c(=O)n(Cc3ccccc3)c3cccnc32)C1 | inconclusive: 44.7 µM [inhibitor, partial curve, poor fit] | – | – |
| Cc1ccc(C(=O)N2CCC3(CC2)NC(=O)N(c2ccc(F)cc2)N3)cc1 | inconclusive: 35.5 µM [inhibitor, partial curve] | – | – |
| COc1ccc(-c2cc(C[C@@H]3CC[C@H](O)[C@@H](CNC(=O)Nc4ccccc4)O3)no2)cc1 | inconclusive: 63.1 µM [inhibitor, partial curve, poor fit] | – | – |
| C=CCOC(=O)Nc1nc2c(s1)C[C@@H]1[C@](C)(CO)[C@H](O)CC[C@@]1(C)[C@@H]2CC(=O)NC1CCCCC1 | inconclusive: 44.7 µM [inhibitor, partial curve, poor fit] | – | – |
| OCc1ccc(CN2CCC[C@H]2c2nc(-c3ccc(N4CCOCC4)nc3)no2)o1 | – | inactive: -27.7% [at 174 µM] | – |
| O=C(CCC(=O)n1ncc2c(Cl)cccc21)N1CCC(Cc2nc(C3CCOCC3)no2)CC1 | – | inactive: -15.1% | – |
| O=C(NCC1CCCN(Cc2cccc(-c3ccco3)c2)C1)c1cccs1 (stereo not given) | – | inactive: -10.8% | – |
| Cn1cc(C(=O)NCC2CN(CCCc3ccccc3)CC23CN(c2ccccc2)C3)cn1 (stereo not given) | inconclusive: 70.8 µM [inhibitor, single point] | – | – |
| COCC(=O)NC[C@@H]1C=C(C)[C@H](Cc2nc3ccccc3n2C)C[C@H]1C(C)C | active: 50.1 µM | – | – |
| Cc1cccc(N2CCN(C(=O)c3ccc4c(c3)C(O)CCCCCN4C)CC2)c1 (stereo not given) | inconclusive: 10 µM [inhibitor, full curve, poor fit] | – | – |
| O=C(C1CCCCC1)N1CCC(Cc2ccccc2)(C(=O)O)CC1 | inconclusive: 56.2 µM [inhibitor, partial curve, poor fit] | – | – |
| O=C(NC1CCNCC1)C1CCN(c2nc(-c3ccccc3)nc3c2CCC3)CC1 | inconclusive: 89.1 µM [inhibitor, single point] | – | – |
| Cc1ccc(-c2nnc(C3CN(C(=O)c4ccc(F)c(F)c4)CC34CCOCC4)o2)cc1 (stereo not given) | inconclusive: 50.1 µM [inhibitor, partial curve, poor fit] | – | – |
| CCn1ccnc1CN(C)Cc1cccc(OCC(O)CN(C)C2CCCCC2)c1 (stereo not given) | inconclusive: 56.2 µM [inhibitor, partial curve, poor fit] | – | – |
| COCCNC(=O)C1(C)CN(C)Cc2ccc(Nc3cccc(OC)c3)nc21 (stereo not given) | inconclusive: 89.1 µM [inhibitor, partial curve, poor fit] | – | – |
| COC[C@@H]1CN(C(=O)c2cc(C)oc2C)C[C@H]1c1nc(C)no1 | inconclusive: 79.4 µM [inhibitor, partial curve, poor fit] | – | – |
| Cc1ccc(NC(=O)Cn2c(N3CCN(c4ccccc4)CC3)nc(C)cc2=O)cc1 | inconclusive: 56.2 µM [inhibitor, partial curve, poor fit] | – | – |
| CC(C)CCN1CCn2c(nnc2-c2ccc(Cl)cc2)C1 | inconclusive: 20 µM [inhibitor, full curve, poor fit] | – | – |
| COc1nccc(N2CCC(CC(=O)N3CCCN(c4ncccn4)CC3)CC2)n1 | – | inactive: -30.7% | – |
